Like-named read-outs stand apart in the source and are kept apart here.
Legend:
AT1R-Venus/FP-WT dimer [1] = molecular target: T1, AT1R-Venus/FP-WT dimer (Homo sapiens, UniProt P30556+P43088); conditions: for Effect of endocytosis inhibitor pretreatment on PGF2α-induced β-arrestin 1/2-RlucII recruitment: pretreatment 30 min, sucrose 450 mM, phenylarsine oxide 2.5 μM, concanavalin A 0.4 g/L, PGF2α 1 μM
AT1R-Venus/FP-WT dimer [2] = molecular target: T1, AT1R-Venus/FP-WT dimer; assay: cell-based

Compound | EC50 (AT1R-Venus/FP-WT dimer [2]) [nM] | Effect of endocytosis inhibitor pretreatment on PGF2α-induced β-arrestin 1/2-RlucII recruitment (AT1R-Venus/FP-WT dimer [1]) | also measured
O=C(O)CCC/C=C\C[C@@H]1[C@@H](/C=C/[C@H](O)C2Cc3ccccc3C2)[C@@H](F)C[C@@H]1O [AL-8810] |  |  | EC50 (AT1R-Venus/FP-WT dimer [1]; read-out: EC50 values for β-arrestin 2-RlucII recruitment to the AT1R-Venus/FP-WT dimer, Mean ± SEM, HEK 293 parental cells transiently expressing β-arrestin 2-RlucII, AT1R-Venus and FP-WT, n = 3, unit M): 3000 nM
O=C(O)CCC/C=C\C[C@@H]1[C@@H](/C=C/[C@@H](O)COc2cccc(C(F)(F)F)c2)[C@H](O)C[C@@H]1O (racemic) [Fluprostenol] | 0.89 |  | 
concanavalin A |  | potentiated | 
CC(C)OC(=O)CCC/C=C\C[C@@H]1[C@@H](/C=C/C(F)(F)COc2ccccc2)[C@H](O)C[C@@H]1O [Tafluprost] | 0.48 |  | 
OC[C@H]1O[C@@](CO)(O[C@H]2O[C@H](CO)[C@@H](O)[C@H](O)[C@H]2O)[C@@H](O)[C@@H]1O [Sucrose, sucrose] |  | diminished | 
CCCCc1nc(Cl)c(CO)n1Cc1ccc(-c2ccccc2-c2nn[nH]n2)cc1 [losartan] |  |  | Effect of AT1R antagonist on Ang II-induced β-arrestin 1/2 recruitment (AT1R-Venus/FP-WT dimer [1]; losartan 100 μM, Ang II 1 μM): blocked

— publication PMC6431625 (Frontiers in Endocrinology, 2019)
